Assay results published in ChEMBL document CHEMBL4888484, “Replenishing the malaria drug discovery pipeline: Screening and hit evaluation of the MMV Hit Generation Library 1 (HGL1) against asexual blood stage Plasmodium falciparum ,using a nano luciferase reporter read-out” (2022).
Among all 150,000 compounds or so, about 540 (0.36%) showed an effect of 50% or more. The list shows a part of the results.

These compounds were tested on Plasmodium falciparum (assay: Primary screen in NF54 nanoGlo assay, in single point, at 2uM, 72h; a lower Z score goes with more inhibition). Conditions: timepoint 72 hour.
Format: functional, Erythrocyte
For `Cc1cc(C(=O)Nc2cccc(C)c2C)c2c(C)nn(-c3ccc(F)cc3)c2n1`, the “% Inhibition” value was -33% and the Z score was 3.84.
In the case of `COc1ccccc1CN1CCN(C(=O)[C@H]2CCCN(S(C)(=O)=O)CCC(=O)NCC2)CC1`, the “% Inhibition” value is reported as -16% and the Z score is reported as 2.03.
In the case of `O=C(Nc1ccc2c(c1)OCO2)N1CCC(Oc2cccc3cccnc23)CC1`, the “% Inhibition” value is reported as -4% and the Z score is reported as 0.74.
For `CN(C[C@H]1CCCO1)C(=O)C(C)(C)S(C)(=O)=O`, the “% Inhibition” value was -14% and the Z score was 2.22.
`Cn1cc(CCS(=O)(=O)c2cccc(Br)c2)nn1` was tested, and the “% Inhibition” value was -3% and the Z score was 0.43.
`CNc1cc(-c2cncc3ccccc23)c2cc[nH]c2n1` was tested, and the “% Inhibition” value was -6% and the Z score was 1.09.
For `Cc1ccc(S(=O)(=O)c2cn(CC(=O)N3CCOCC3)c3ccccc23)cc1`, the “% Inhibition” value was -13% and the Z score was 1.44.
`O=C(NC1CCCCCC1)C1CCN(c2nc3ccccc3[nH]2)CC1` was tested, and the “% Inhibition” value was 2% and the Z score was -0.32.
In the case of `OCCC1CCCCN1CC(O)COc1ccc2ccccc2c1` (stereo unspecified), the “% Inhibition” value is reported as -5% and the Z score is reported as 0.74.
In the case of `O=C(CC1(O)CCCCC1)N[C@H]1CCN(C2CCCCC2)C1=O`, the “% Inhibition” value is reported as 2% and the Z score is reported as -0.18.
`c1ccc(C2(c3nc([C@H]4CCOC4)no3)CCCC2)cc1` was tested, and the “% Inhibition” value was -14% and the Z score was 1.31.
For `O=C(NCc1cccnc1N1CCC[C@H](O)C1)c1ccc(Cl)c(F)c1`, the “% Inhibition” value was -9% and the Z score was 1.2.
In the case of `COc1ccc(CNC(=O)[C@H]2CCn3c(nc4ccccc43)C2)cc1`, the “% Inhibition” value is reported as -9% and the Z score is reported as 0.86.
In the case of `Cc1cc(C)c2c(CC(=O)N3CCOC[C@@H](CO)C3)coc2c1C`, the “% Inhibition” value is reported as 9% and the Z score is reported as -1.36.
For `Cc1ccc(F)c(N2CCC[C@H](NC(=O)Cn3cccn3)C2)c1`, the “% Inhibition” value was 1% and the Z score was -0.17.
`CN1CCN(c2ccccc2NC(=O)N[C@@]2(C)CCS(=O)(=O)C2)CC1` was tested, and the “% Inhibition” value was -4% and the Z score was 0.56.
With `Cc1nn(-c2ccccc2)c2[nH]cc(C(=O)Nc3cccc4ccccc34)c(=O)c12` the “% Inhibition” value was -25% and the Z score was 3.16.
With `CCn1nnnc1NC(=O)NC[C@H]1CC(C)(C)OC1(C)C` the “% Inhibition” value was 10% and the Z score was -1.84.
With `O=C(c1ccco1)N1CCN(c2cc(-n3cccn3)ncn2)CC1` the “% Inhibition” value was -19% and the Z score was 2.96.
With `CC(C)c1ccc(N2C(=O)[C@H](CC(=O)N3CCc4ccccc4C3)N=C2O)cc1` the “% Inhibition” value was -14% and the Z score was 1.77.
For `Cc1ncc2c(c1-c1noc(C3CCCCC3)n1)CCN(C(=O)NC(C)C)C2`, the “% Inhibition” value was -11% and the Z score was 2.08.
`O=C(N1CCN(C(=O)C(F)(F)F)CC1)C(F)(F)F` was tested, and the “% Inhibition” value was -15% and the Z score was 1.89.
`CC(=O)N1CCC2(CC1)N=C(c1ccc(F)cc1)C[C@@H](c1cc(Cl)ccc1O)N2` was tested, and the “% Inhibition” value was -11% and the Z score was 1.6.
`Cc1csc(CNC(=O)[C@H]2CCC(=O)N(Cc3ccc(Cl)cc3)C2)n1` was tested, and the “% Inhibition” value was -3% and the Z score was 0.38.
`CC1CCCN(CC(=O)NC(C)(C#N)C2CC2)C1` (stereo unspecified) was tested, and the “% Inhibition” value was -6% and the Z score was 0.62.
With `CC(C)CN1CC2(CCN(C(=O)Nc3ccc(F)c(F)c3)CC2)CC1=O` the “% Inhibition” value was -17% and the Z score was 2.01.
For `O=C(c1ccc(-n2ccc3ccccc32)s1)N1CCN(c2ccccc2)CC1`, the “% Inhibition” value was -13% and the Z score was 1.67.
With `NS(=O)(=O)c1cnccc1NC1CCCCC1` the “% Inhibition” value was -41% and the Z score was 4.81.
For `COc1ccc(CN2CCN(C(=O)C3CCCC3)CC2)cn1`, the “% Inhibition” value was 10% and the Z score was -1.24.
For `CS(=O)(=O)N(CC(=O)NC1CC2CCC1C2)c1ccc(OCc2ccccc2)cc1` (stereo unspecified), the “% Inhibition” value was -8% and the Z score was 0.89.
In the case of `Cn1c(CN2CCOCC2)nnc1[C@H]1CCCN(c2ncccc2F)C1`, the “% Inhibition” value is reported as -10% and the Z score is reported as 1.28.
`Cc1nc(N2CCCCCCC2)ncc1[C@H](C)Nc1ccnc(N)n1` was tested, and the “% Inhibition” value was -6% and the Z score was 0.72.
In the case of `CN(Cc1cc(-c2ccccc2)no1)C(=O)c1cn2c(n1)CNCC2`, the “% Inhibition” value is reported as -17% and the Z score is reported as 1.55.
For `CC(C)[C@H](CNc1ncnc2ccsc12)N1CCN(C)CC1`, the “% Inhibition” value was 32% and the Z score was -4.26.
For `O=C(CCCc1nc(C2CC2)nn1[C@H]1CCS(=O)(=O)C1)c1ccccc1`, the “% Inhibition” value was -8% and the Z score was 1.04.
`COCC1(C(=O)NC[C@H]2CN(C)CCO2)CCC1` was tested, and the “% Inhibition” value was -14% and the Z score was 1.79.
For `COC[C@H](C)C(=O)Nc1cc(C)ns1`, the “% Inhibition” value was 8% and the Z score was -0.84.
With `O=C(Cc1nnc(-c2ccccc2)o1)NC[C@H]1CCCO1` the “% Inhibition” value was -9% and the Z score was 1.55.
`COc1cc(Cl)cc(C(=O)N2CCOC[C@@H](CO)C2)c1` was tested, and the “% Inhibition” value was -12% and the Z score was 1.2.
For `Cc1cc(C(=O)NCCn2ccnc2C)no1`, the “% Inhibition” value was -19% and the Z score was 2.73.
With `Cc1[nH]ncc1S(=O)(=O)N1CCN(CC(F)(F)C(F)F)CC1` the “% Inhibition” value was 12% and the Z score was -1.31.
With `COc1ccc(NC(=O)C2(N(Cc3cccnc3)C(=O)CC3C(c4c(C)[nH]c5ccccc45)C3(C)C)CCN(C)CC2)cc1` (stereo unspecified) the “% Inhibition” value was -23% and the Z score was 2.66.
For `CN(CC1(CO)CCCC1)c1ncccc1F`, the “% Inhibition” value was -21% and the Z score was 2.72.
For `COc1ccc(N2CCN(Cc3nc4nc(C)cc(N(C)C)n4n3)CC2)cc1`, the “% Inhibition” value was 0% and the Z score was 0.08.
In the case of `Cc1nnc(CN2CCC(CNC(=O)c3ccccc3)CC2)o1`, the “% Inhibition” value is reported as -13% and the Z score is reported as 2.58.
`CN(C)c1ccc(S(=O)(=O)NCc2nnc(N(C)C)[nH]2)cc1` was tested, and the “% Inhibition” value was -14% and the Z score was 2.24.
In the case of `COCC(=O)N[C@H]1CCCC[C@@H]1OC`, the “% Inhibition” value is reported as -11% and the Z score is reported as 1.11.
`Cc1ccc(CN(C)CCn2ccnc2C)s1` was tested, and the “% Inhibition” value was -13% and the Z score was 1.3.
In the case of `O=C(c1ccc(Cl)cc1)n1nc(Nc2ccc(Cl)cc2)cc1Nc1ccc(Cl)cc1`, the “% Inhibition” value is reported as -13% and the Z score is reported as 1.94.
In the case of `COCn1ccc(C(=O)NC(C)(C)c2ccc(Br)c(C)c2)n1`, the “% Inhibition” value is reported as -1% and the Z score is reported as 0.12.
With `O=C(NC1CCN2CCCC2C1)N(CCc1cccc(F)c1)C1CC1` (stereo unspecified) the “% Inhibition” value was -2% and the Z score was 0.25.
`O=C(NC[C@H](NC(=O)c1cscn1)c1ccccc1)c1cscn1` was tested, and the “% Inhibition” value was -5% and the Z score was 0.61.
`O=C(Cc1ccc(O)cc1)NC[C@H]1CCN(C2CCCC2)C1` was tested, and the “% Inhibition” value was -5% and the Z score was 0.67.
In the case of `Cc1sc(-c2ccn[nH]2)cc1NC(=O)c1cccc(C#N)c1`, the “% Inhibition” value is reported as -21% and the Z score is reported as 2.15.
With `Cn1ncnc1CCNCc1cc(Cl)ccc1F` the “% Inhibition” value was -9% and the Z score was 0.94.
With `COc1ccc(OC)c(NC(=O)[C@H]2CCCN(c3nnc4c(Cl)cccn34)C2)c1` the “% Inhibition” value was -14% and the Z score was 2.5.
For `CCN(CCC(=O)O)C(=O)CCc1ccc(Cl)cc1`, the “% Inhibition” value was -11% and the Z score was 0.96.
`C[C@H]1CCCN1C(=O)Cn1[nH]c2ccccc2c1=O` was tested, and the “% Inhibition” value was 6% and the Z score was -1.11.
`COc1ccc(OC)c(-n2c(C3CCCCC3)n[nH]c2=O)c1` was tested, and the “% Inhibition” value was 4% and the Z score was -0.69.
In the case of `CN1CCCc2cc(C(=O)N3CCC(CCC(=O)NC4CC4)CC3)ccc21`, the “% Inhibition” value is reported as 0% and the Z score is reported as -0.01.
`CC(C)(C)OC(=O)N1CCN(c2nnc(C(C)(C)C)[nH]2)CC1` was tested, and the “% Inhibition” value was -9% and the Z score was 1.54.
With `CCC(CC)[C@H](NCc1nc(C2CC2)nn1C)c1cccs1` the “% Inhibition” value was -7% and the Z score was 1.08.
With `C[C@H]1C(=O)N(C)C[C@@H](CNS(=O)(=O)c2ccccc2)N1Cc1cccnc1` the “% Inhibition” value was 40% and the Z score was -5.81.
`CCN(C)C1(CNS(=O)(=O)N2CCCC2)CCCCC1` was tested, and the “% Inhibition” value was -9% and the Z score was 1.67.
For `CN(CC(=O)NC1CCCCCCC1)CC1(C)COC1`, the “% Inhibition” value was -1% and the Z score was 0.19.
With `O=C(Nc1nc2c(s1)CN(C(=O)COc1ccccc1F)CC2)c1ccsc1` the “% Inhibition” value was -2% and the Z score was 0.32.
In the case of `CC(C)NC(=O)NCc1ccc(C(=O)N2CCN(S(=O)(=O)c3ccc4c(c3)CCCC4)CC2)cc1`, the “% Inhibition” value is reported as 19% and the Z score is reported as -2.42.
In the case of `CCc1c(C)sc2c1CCN(C(=O)NCc1cccc(OC)c1)[C@@H]2c1ccc(F)cc1`, the “% Inhibition” value is reported as -14% and the Z score is reported as 1.41.
With `Cc1cc(NC(=O)Nc2ccccc2)c2[nH]c(C(=O)NCCc3ccco3)c(-c3ccccc3)c2c1` the “% Inhibition” value was -10% and the Z score was 1.9.
With `CN1C[C@@H](C(=O)Nc2ccc(NC(=O)OC(C)(C)C)nc2)CC1=O` the “% Inhibition” value was -10% and the Z score was 1.6.
In the case of `O=C(Cn1cc(-c2nc(-c3ccc(Cl)cc3)no2)ccc1=O)NCc1ccc(F)cc1`, the “% Inhibition” value is reported as -4% and the Z score is reported as 0.56.
For `O=C(c1cnn2ccccc12)N1CCC(n2ncc3c2CNC3)CC1`, the “% Inhibition” value was -16% and the Z score was 2.42.
For `Cc1nscc1C(=O)N1C[C@@H]2CCCN(C(=O)c3csnc3C)[C@@H]2C1`, the “% Inhibition” value was 6% and the Z score was -1.03.
In the case of `CN(Cc1ccn(C)n1)C(=O)NC[C@H]1CCC(C)(C)c2ccccc21`, the “% Inhibition” value is reported as -6% and the Z score is reported as 1.06.
With `C[C@@H](CO)N(C)Cc1nc2c(s1)CN(C(=O)OC(C)(C)C)CC2` the “% Inhibition” value was 1% and the Z score was -0.19.
In the case of `COc1cc(C(=O)OC(C)C(=O)Nc2ccc3c(c2)OCCO3)cc2c1OC(C)C2` (stereo unspecified), the “% Inhibition” value is reported as -15% and the Z score is reported as 1.4.
For `Cc1cccc(C2C(C(=O)NC(C)C)c3ccccc3C(=O)N2C2CC2)c1` (stereo unspecified), the “% Inhibition” value was -14% and the Z score was 1.4.
In the case of `Cc1nc(NC(=O)c2oc3ccccc3c2CN(C)C)n[nH]1`, the “% Inhibition” value is reported as -14% and the Z score is reported as 1.82.
For `O=C(Nc1nccs1)C1CCCN(C(=O)C2CC2c2ccco2)C1` (stereo unspecified), the “% Inhibition” value was -15% and the Z score was 1.32.
In the case of `CS(=O)(=O)N1C[C@H]2CC[C@@H](C1)N(C(=O)c1ccccc1C#N)C2`, the “% Inhibition” value is reported as -7% and the Z score is reported as 0.64.
For `CCn1ncnc1[C@H](C)NC(=O)c1nc(C(C)C)cs1`, the “% Inhibition” value was -6% and the Z score was 0.79.
With `CN(Cc1ccccc1)C(=O)c1cccc(Nc2c(Oc3ccccc3)cnn(-c3ccc(Cl)cc3)c2=O)c1` the “% Inhibition” value was -10% and the Z score was 1.55.
For `c1ccc(-c2cc(CN3C[C@H]4CC[C@@H](C3)N(CC3CC3)C4)on2)cc1`, the “% Inhibition” value was -8% and the Z score was 1.18.
